About 340 (0.77%) of roughly 44,000 compounds were called active. Roughly 5% stayed inconclusive and do not appear here. Calls come from the whole dose curve; as a rule, active = well fitted inhibition curve with a large enough effect; inconclusive = small, poorly fitted or top-dose-only effect; inactive = flat fitted curve, though single readings scatter. This is one part of the list.
test: Acumen qHTS Assay for Inhibitors of the mTORC1 Signaling Pathway in MEF (Tsc2-/-, p53-/-) Cells: Sytravon; conditions: phospho-rpS6 immunofluorescence/PI, 24 h; series mostly up to 38.3 µM; activity change, negative = inhibition: at the top concentration;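 note: plate controls were DMSO for no effect and rapamycin for full effect; nearly all actives have a fitted effect of over 50% in size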
Method in brief: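 Tsc2-/-, p53-/- MEFs (empty-vector stable line) in DMEM + 10% FBS were treated with compounds 24 h at 37 degree Celsius, fixed, and immunostained for phospho-rpS6 (Alexa-488) with propidium iodide counterstain. Laser-scanning cytometry gave % positive cells, normalized against 7.5 nM rapamycin and DMSO.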

Activity change, negative = inhibition, inactive:
Cc1ccc(-c2nc(-c3cc4cccc(OCc5ccc(F)cc5)c4oc3=O)no2)cc1 -10.7%
Cc1ccc(CNC(=O)C2CCCCN2S(=O)(=O)c2ccc(F)cc2)cc1 (centres undefined) -6.2%
Cc1ccc(NC(=O)CSc2nc(-c3ccc(C(C)(C)C)cc3)nc3cc(=O)[nH]n23)cc1C -6.7%
COc1ccc(CNC(=O)C2CCN(S(=O)(=O)c3ccc(F)cc3)CC2)cc1 -10.4%
CSc1ncc(C(=O)Nc2cccc(C)c2C)c(-c2ccccc2)n1 0.0281%
COC(=O)c1ccc2c(c1)N(Cc1cc(C)ccc1C)C(=O)c1ccccc1S2 -1.73%
CCN1CCc2nc3sc(C(=O)c4ccccc4)c(N)c3cc2C1 -6.56%
CCN(c1ccccc1)S(=O)(=O)c1nnc(NC(=O)C(C)(C)C)s1 0.236%
CC(CNC(=O)c1ccc(CSc2nc3ccncc3n2Cc2ccc(F)cc2)cc1)c1ccccc1 (centres undefined) -5.19%
CCOc1ccc2nc(N3CCCC(C(=O)NCCCOC)C3)sc2c1 (centres undefined) -0.64%
Cc1nc2nc(NCc3cccc(Cl)c3)[nH]n2c(=O)c1Cc1ccccc1 3.72%
COC(=O)c1ccc(Cn2c(SCc3ccccc3F)nc3ccncc32)cc1 -5.75%
CCOc1ccc(CCNC(=O)Cn2c(=O)c3cccn3c3ccc(F)cc32)cc1OCC 5.45%
COc1ccc(-c2cc3ccc(O)c(CN4CCCC(C)C4)c3oc2=O)cc1 (centres undefined) 0%
COc1ccc(OCCn2c(C(C)Oc3ccccc3)nc3ccccc32)cc1 (centres undefined) -15.6%
CC1C(=O)Nc2ccc(S(=O)(=O)NCc3ccc(N(C)C)cc3)cc2NC1=O (centres undefined) -10.5%
Cc1ccc(Cl)cc1-n1ncc2c(NCc3ccc(F)cc3)ncnc21 -7.97%
COc1ccc(Cn2c(CCC(=O)Nc3ccc(C)c(C)c3)nc3cccnc32)cc1 1.39%
CCCN(CCC)C(=O)CN1C(=O)CSc2ccc(S(=O)(=O)N3CCC(C)CC3)cc21 0.325%
CC(=O)N1CCc2cc(S(=O)(=O)NC(CC(C)C)C(=O)NCCc3ccc(C)cc3)ccc21 (centres undefined) 0.218%
COc1cccc(C(=O)c2cn(CC(=O)Nc3cccc(C(F)(F)F)c3)c3nc(C)ccc3c2=O)c1 0%
CCN(CC)S(=O)(=O)c1ccc2c(c1)nc(CN(C)C(=O)Nc1cccc(Cl)c1)n2C 19.6%
CCS(=O)(=O)N1CC(=O)N(c2cc(C)ccc2C)C(C)(C(=O)NC2CCCCC2)C1 (centres undefined) 3.29%
Cc1ccc(Cl)cc1NC(=O)N1CCC2(CC1)Oc1ccccc1C(=O)N2Cc1ccccc1F -0.605%
COc1ccc(-n2nnc(-c3nsc(NC(=O)c4cccs4)n3)c2C)cc1OC 7.12%
Cc1cccc(NC(=O)C(=O)NCCc2sc(-c3ccccc3)nc2C)c1C -0.348%
Cc1c(Cl)cccc1NC(=O)C(CCS(C)(=O)=O)N1Cc2ccccc2C1=O (centres undefined) 0.645%
COc1ccc(-c2cn3c(n2)sc2cc(C(=O)NC4CCCCCC4)ccc23)cc1 -13.8%
Cc1ccc(S(=O)(=O)c2c(Nc3cc(C)ccc3C)sc(C(=O)c3ccc4c(c3)OCO4)c2N)cc1 0.35%
CC1CCCN(c2c(S(=O)(=O)c3ccccc3)cnc3ccc(Cl)cc23)C1 (centres undefined) -6.88%
CC(CNC(=O)c1cc(-c2ccccc2)n[nH]1)c1ccccc1 (centres undefined) -4.3%
Cc1cccc(N2CCN(C(=O)c3c(C)oc4ncnc(N5CCOCC5)c34)CC2)c1C -9.43%
Nc1cc(=O)nc(SCC(=O)Nc2ccc(F)cc2)n1-c1cccc(Cl)c1 -9.67%
COc1ccc(C)cc1NC(=O)c1cc(S(=O)(=O)N2CCC(C)CC2)cn1C 4.22%
COc1ccc(CCN2C(=O)N(c3ccc(C)cc3)C(=O)C2CC(=O)Nc2ccc(F)cc2)cc1 (centres undefined) -13.1%
Cc1nn(C(=O)COc2ccccc2Br)c(C)c1Sc1ccccc1 -9.96%
COc1ccc(CN2C(=O)N(c3ccc(F)cc3)C(=O)C2CC(=O)Nc2cc(OC)cc(OC)c2)cc1 (centres undefined) -9.05%
CCc1ccc(NC(=O)C(NS(=O)(=O)c2cccc3nsnc23)c2ccccc2)cc1 (centres undefined) -0.27%
COc1cccc(NC(=O)c2sc3nc(C)c(C(=O)Nc4ccc(Cl)cc4)c(-c4ccc(Br)cc4)c3c2N)c1 0%
O=C(CSc1n[nH]c(-c2ccccc2)n1)N1CCN(c2ccccc2F)CC1 0%
COc1ccc2c(CNCc3ccccc3OC)c(C(=O)O)n(Cc3ccc(F)cc3Cl)c2c1 -12.5%
CCc1ccc(NC(=O)C2CCC(CNS(=O)(=O)c3ccc4c(c3)C(C)(C)C(=O)N4C)CC2)cc1 (centres undefined) -0.0737%
Cc1cccc(NC(=O)c2sc3nc(-c4ccccc4)cn3c2C)c1C -4.14%
COc1ccc(-c2c3c(=O)n(C)c(=O)n(C)c3c3n2-c2ccccc2NC3c2ccc(O)cc2O)cc1 (centres undefined) -3.74%
COc1ccc2c(Sc3ccc(C)cc3)c(C(=O)NCCc3ccccc3)[nH]c2c1 -2.07%
COc1ccc(N(CC(=O)Nc2cccc(C(C)=O)c2)S(=O)(=O)c2ccccc2)c(OC)c1 3.46%
Cc1cc(OCCCn2c(CCNC(=O)C3CCCCC3)nc3ccccc32)ccc1Cl 1.4%
CCOc1ccc(C(=O)N(Cc2cc(OC)c(OC)c(OC)c2)c2ccccn2)cc1 -10%
OCc1cnc(SCc2ccc(F)cc2)n1Cc1ccc(F)cc1 -1.71%
O=C(CSc1nc(-c2cccs2)nc2cc(=O)[nH]n12)Nc1cccc(C(F)(F)F)c1 3.17%
O=C(Nc1nc2n(n1)C(c1ccc(Cl)cc1)C=C(c1ccccc1)N2)c1ccco1 (centres undefined) 0.625%
Cc1nn(C)c2c1c(C(F)(F)F)cc(=O)n2C(C)C(=O)NCCc1ccccc1 (centres undefined) -1.54%
COc1ccc(CCNC(c2ccc(F)cc2)c2nnc(-c3ccccc3Cl)o2)cc1OC (centres undefined) 0.623%
O=C(c1ccc(F)cc1)N1CCC(c2nc(-c3ccc(S(=O)(=O)N4CCCC4)cc3)no2)CC1 -5.03%
O=C(Cn1cnc2onc(-c3ccc(F)cc3)c2c1=O)Nc1ccc(F)c(Cl)c1 3.23%
O=C(CN1c2ccccc2S(=O)(=O)c2ccccc21)Nc1ccccc1Cl -1.22%
CCc1nn(CC(=O)NCCCN2CCN(CC)CC2)c(=O)c2cc3occc3n12 0.0403%
CCOc1ccc(S(=O)(=O)c2cn(Cc3ccccc3C)c3ccc(OC)cc3c2=O)cc1 -7.75%
CCCOc1ccc(-c2nonc2NC(=O)c2oc3ccc(Cl)cc3c2C)cc1OCCC -3.33%
O=C(c1ccc2c(c1)N(Cc1c(F)cccc1Cl)C(=O)c1ccccc1S2)N1CCOCC1 -0.063%
CCc1cccc(NC(=O)C2Cc3ccccc3N2C(=O)c2ccccc2)c1 (centres undefined) -12.9%
Cc1ccc2c(c1)c(CC(=O)Nc1ccc(C)c(F)c1)c(C(=O)O)n2C -2.89%
Cc1ccc2nc(COc3ccccc3NC(=O)c3ccccc3F)cc(=O)n2c1 0.295%
CCOc1cccc(C2c3[nH]c4ccccc4c3CCN2C(=O)CSCc2ccc(F)cc2)c1 (centres undefined) -13.5%
COc1ccc(OC)c(NC(=O)CSc2ncc3c(n2)-c2ccccc2N(C)S3(=O)=O)c1 0.311%
O=C(C1COc2ccccc2O1)N(Cc1cccnc1)c1nc2c(Cl)cccc2s1 (centres undefined) -1.68%
NC(=O)Cn1c(=O)n(CCCCCC(=O)NCc2ccc(F)cc2)c(=O)c2sccc21 -16.1%
CCCNC(=O)c1ccc(-c2nc(CS(=O)(=O)c3ccc(C)cc3)c(C)o2)cc1 -0.807%
CCCCS(=O)(=O)CC(O)CSc1nc(-c2ccc(C)cc2)cc(-c2ccccc2)c1C#N (centres undefined) 8.57%
COc1cccc(C(=O)Nc2cccc(-c3cn4ccsc4n3)c2)c1OC 0.352%
CCOC(=O)/C(C#N)=C/c1ccc(-c2ccc(Br)cc2)o1 -3.84%
Cc1ccccc1-c1noc(-c2cccnc2N2CCN(c3ccccc3)CC2)n1 1.76%
CCOC(=O)c1ccc(NC(=O)CCn2c(=O)c3cccn3c3cccnc32)cc1 -3.73%
O=C(Nc1ccc(F)cc1F)c1cc(-c2ccc(Cl)cc2)on1 3.42%
CCc1cccc(NS(=O)(=O)c2ccc(-n3cccn3)cc2)c1 -0.105%
CCN(CC)C(=O)Cn1c(=O)n(-c2ccc(C)c(C)c2)c(=O)c2c3c(sc21)CCCCC3 4.1%
COc1ccc(NC(=O)c2ccc3c(SCC(=O)O)c4c(nc3c2)CCCC4)c(OC)c1 1.45%
O=C(NCCCN1CCN(c2ccc(F)cc2)CC1)c1cnn(-c2ccc(F)cc2)c1-n1cccc1 -13.8%
Cc1cccc(-c2nc3c4ccccc4n(Cc4cccc(Cl)c4)c(=O)n3n2)c1 -8.41%
O=C(CN1C(=O)COc2ccc(S(=O)(=O)N3CCOCC3)cc21)N1CCN(c2cccc(Cl)c2)CC1 -8.07%
C#CCSc1nc(-c2ccccc2)cc(-c2ccccc2)c1C#N -17.1%
Cc1ccc(-n2c3c(cc(-c4nc(-c5ccc(Cl)cc5)cs4)c2=O)C(=O)CC(C)(C)C3)cc1C -3.41%
O=S(=O)(c1ccc(-c2cc(C(F)(F)F)on2)s1)N1CCN(c2ccc(F)cc2)CC1 -4.73%
Cc1cc(Br)ccc1NC(=O)Cn1cc(S(=O)(=O)N2CCN(c3ccccc3F)CC2)c2ccccc2c1=O 12.6%
COc1ccc(NC(=O)C2CCCN(c3ncnc4c3nc3n4CCCCC3)C2)c(OC)c1 (centres undefined) -15%
COc1cc(NS(=O)(=O)c2cc3c(cc2C)N(C)CCO3)cc(OC)c1OC -11.9%
Cc1ccc(C)c(N2CCN(C(=O)CCc3nnc4n(CC(C)C)c(=O)c5ccccc5n34)CC2)c1 -13.3%
Cc1ccc(CN2CCc3nc(Nc4ccc5c(c4)OCCO5)ncc3C2)cc1 9.81%
CCOc1ccc(CNC(=O)c2cnc3sc(N4CCOCC4)nn3c2=O)cc1 -7.96%
CCS(=O)(=O)N1CCc2cc(C(=O)Nc3ccc(C(=O)OC)cc3)ccc21 2.14%
CCn1cc(C(=O)N2CCN(c3cccc(Cl)c3)CC2)c2cc(OC)c(OC)cc2c1=O -4.19%
CC1=C(c2ccc(C(C)C)cc2)S(=O)(=O)NC1=NCCCN1CCN(c2ccccc2F)CC1 -3.66%
CCSc1oc(-c2ccco2)nc1S(=O)(=O)c1ccc(Br)cc1 -1.46%
CC(=O)c1ccc(Nc2nc3c(S(=O)(=O)c4ccccc4)nnn3c3ccc(Cl)cc23)cc1 -11.7%
